Out of some 2,800 compounds screened, fewer than 10 were called active. The call rests on the fitted dose curve; in most records, active means well fitted curve in the direction sought with a large enough effect; inconclusive means small, poorly fitted or top-dose-only effect, or another doubt; inactive means no such curve, though single readings can be large or run the other way. Some of the results follow.
biological target: Metallo-beta-lactamase type 2 (Klebsiella pneumoniae) (UniProt C7C422); experiment: qHTS to identify inhibitors of the New Delhi Metallo-beta-lactamase (NDM): Meropenem screen against the machine-based learning selections.; further: % of control where 0% means no effect; settings: Purified NDM-1, meropenem hydrolysis, absorbance 300 nm; at 38.4 µM (top of the series) unless noted
Chain of UniProt C7C422 (C7C422 whole entry, looked up): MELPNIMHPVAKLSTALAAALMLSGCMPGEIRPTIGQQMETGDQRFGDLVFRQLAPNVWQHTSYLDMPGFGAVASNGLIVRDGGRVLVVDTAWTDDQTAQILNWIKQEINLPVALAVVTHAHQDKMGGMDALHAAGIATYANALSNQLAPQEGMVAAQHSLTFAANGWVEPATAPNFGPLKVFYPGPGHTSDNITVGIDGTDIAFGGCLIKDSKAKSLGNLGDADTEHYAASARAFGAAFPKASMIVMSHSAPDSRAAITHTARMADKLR
In short: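 Hydrolysis by 2 nM NDM-1 was followed by absorbance after >30 min compound preincubation in HEPES pH 7.0 buffer with 1 uM Zn2SO4. For nitrocefin (16.7 uM, 15 min, 485 nm) and meropenem (50 uM, 30 min, 300 nm), each substrate ran on separate plates.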

Activity change, negative = inhibition, inactive:
C[C@@H](NS(=O)(=O)c1ccc(Cl)cc1)c1onc(-c2cccnc2)c1C(=O)O 5.47% [at 57.5 µM], CSCC(=O)N1CC[C@H](NC(=O)Nc2cccc(SC)c2)[C@H]1C(=O)N[C@@H](Cc1cccs1)C(N)=O -0.536%, O=C(Cc1ccccc1C(F)(F)F)N1CCC2(CC1)[C@H](O)C[C@@H]2O -3.71%, c1ccc(-c2cc3c(cn2)CN(Cc2c[nH]c4ccccc24)CCN3)cc1 -1.8% [at 57.5 µM], CC(C)Oc1ccc2c(NC(=O)c3ncc(F)cc3F)nn(CC(F)(F)F)c2c1 28.7%, O[C@H]1CC[C@@H](Cc2cc(COc3ccccc3)on2)O[C@@H]1CNC1CCOCC1 1.9% [at 57.5 µM], CC(C)(O)c1cc(CC2(NCc3cnc4ccccc4c3)COC2)no1 0.689% [at 57.5 µM], CC1(C(=O)Nc2ccccc2)COCc2cnc(Nc3ccccc3)nc21 (configuration not stated) 1.41% [at 57.5 µM], COc1ccc(-c2[nH]ncc2CN2CC[C@H]3CC[C@@H](C2)N3)cc1 42.2%, CN1C[C@@H](NC(=O)c2ccc(C(C)(C)C)cc2)C[C@H]1c1nc(-c2ccncc2)no1 -0.0853% [at 57.5 µM], CC(C)N1C(=O)CO[C@H](c2ccc(NC(=O)c3ccccc3)cc2)[C@H]1CO 1.42% [at 57.5 µM], Cc1cccc2c1nc1n2[C@@H](CNCc2ccccc2)COC1 -1.48% [at 57.5 µM], CCOC(=O)C[C@@H]1C[C@@H](C(C)C)[C@H](CNC(=O)c2ccc(F)cc2)C=C1C 1.91% [at 57.5 µM], Cc1cc(Cn2cc3c4c(cccc42)[C@H](CC(C)C)N[C@H](C(=O)N2CCN(C)CC2)C3)no1 1.09%, COc1ccc(C(=O)N[C@H](C)c2onc(-c3ccc(F)cc3)c2C(=O)O)cc1 8.11% [at 57.5 µM], CCc1nc2c(c(-c3ccc(O)cc3)n1)CN(Cc1ccccc1OC)CC2 2.83%, O=C(O)Cn1ccc2cc(OCCc3cccc(-c4ccccc4)c3)cnc21 21.8% [at 57.5 µM], COc1cc(F)cc(-c2cnc3[nH]cc(CC(=O)NCc4cccnc4)c3c2)c1 1.07% [at 57.5 µM], COc1ccc(C(=O)NC[C@H]2O[C@@H](CC(=O)N3CCN(c4ccccc4OC)CC3)[C@H](O)[C@@H]2O)cc1 0.607%, COCC(=O)NC[C@H]1OC[C@@H](NC2CCC2)[C@@H]1O -0.146% [at 76.7 µM], O=C(O)C1CN(c2nccc(N3CCC(O)CC3)n2)CCN1 (configuration not stated) 45.8%, O=C(O)Cn1ccc2cc(OCc3cccc(-c4cccc(C(F)(F)F)c4)c3)cnc21 25.8% [at 57.5 µM], O=C(c1ccc(OC(F)F)cc1)N1CCCC(O)(CN2CCCC2)C1 (configuration not stated) -0.303%, C=CCN(C)C(=O)[C@@H](C)C1CC[C@@]2(C)Cc3sc(CSc4ccccc4)nc3[C@@H](C)[C@@H]2[C@H]1O (some centres not stated) -0.356%, Cc1ccc(OC2(C(=O)N[C@H]3CCc4ccccc43)CCNCC2)cc1 -0.232%, Cc1nnc([C@@H]2CC(F)(F)CN2C(=O)c2ccc3ncccc3c2)o1 -4.78%, CC(C)NC(=O)N[C@H]1C[C@@H](Cc2cc(-c3ccccc3)on2)C1(C)C 0.8% [at 57.5 µM], CC1(COc2ccccc2)COc2ccc(C(=O)NCCc3cnc[nH]3)cc2N1 (configuration not stated) 1.59% [at 57.5 µM], NC(=O)c1cccc(-c2ccc3c(n2)CN(Cc2nc4ccccc4s2)C(=O)CO3)c1 4.75% [at 57.5 µM], Cc1ccc(S(=O)(=O)N[C@H]2CO[C@H]3[C@@H]2OC[C@@H]3Nc2nccc(C(C)(C)C)n2)cc1 2.58% [at 57.5 µM], Cc1ccccc1Oc1ncccc1CNCc1cccc(O)c1 -0.0618%, CCCc1nnc([C@H]2CCN(Cc3ccc(C)o3)C2)o1 14.5% [at 76.7 µM], COc1cc(NC(=O)Cn2nc3c(cc2=O)CCCCC3)cc(OC)c1OC 1.04%, C[S+](=O)([O-])Nc1cccc(Nc2cnc3ccc(-c4ccc(F)cc4)nn23)c1 19.2% [at 57.5 µM], Cc1cccc(O[C@H]2COCCN(Cc3ccccn3)C2)n1 -3.52% [at 57.5 µM], O=c1cc(CN2CCCC(c3nccn3Cc3ccccc3)C2)[nH]c(=O)[nH]1 (configuration not stated) 90.4%, Cc1cc(C(=O)N[C@H](C)c2c(-c3ccc(Cl)cc3)noc2C(=O)O)c(C)o1 53.2% [at 57.5 µM], Cc1nc(CC(=O)N2CC[C@@H](NC(=O)c3cnccn3)[C@H](O)C2)cs1 3.16%, COc1ccc(C(=O)N2CCC(=O)N(Cc3ccc(F)cc3)C(C(C)C)C2)o1 (configuration not stated) 7.28%, Cc1ccccc1C1CCCN1Cc1ncccc1C(=O)O (configuration not stated) 60.6%, COc1ccc(CN2C[C@@H](CO)[C@H](C3CCN(C(C)=O)CC3)C2)cc1C -0.125%, N#Cc1cccc(CN2Cc3[nH]cnc3C[C@H]2c2nc(-c3ccc(OC(F)(F)F)cc3)no2)c1 13.8%, CCNC(=O)Cc1c[nH]c2ncc(-c3ccccc3C)cc12 5.72% [at 57.5 µM], OC(c1cccc(C(F)(F)F)c1)c1nc(Nc2ccccc2)n[nH]1 (configuration not stated) -0.239% [at 57.5 µM], Fc1ccc2c(c1)nc1n2[C@@H](CNC2CCC2)COC1 -4.78% [at 76.7 µM], COc1ccccc1CN1C(=O)COC[C@@H]1[C@H](O)c1ccc(NC(=O)CCc2ccccc2)cc1 -0.258%, O=c1cc(CNCc2nc(-c3ncccn3)no2)[nH]c2ccc(F)cc12 15.5%, CN(Cc1ccccc1)C(=O)C[C@@H]1O[C@H](CNCc2ccc(F)cc2)[C@@H](O)[C@H]1O -2.09% [at 57.5 µM], COCCN1C(=O)[C@@H]2C[C@@H](CN2Cc2ccccc2)Oc2ccccc21 0.296% [at 57.5 µM], COc1ccc(C(=O)Nc2ccc([C@@H](O)[C@H]3COCC(=O)N3Cc3ccc(F)cc3)cc2)cc1OC 4.78%, O=C(c1cc(F)ccc1F)N1CCN(c2cc(-c3ccc(Cl)cc3)[nH]n2)CC1 -2.4%, CCCn1ccc2oc(C)c(C(=O)NCc3ccc(CC)cc3)c2c1=O 1.82%, CN1[C@@H](CCC(=O)Nc2ccccc2)CNC(=O)[C@@H]2[C@H]1CCN2Cc1nc2ccccc2n1C 34.5%, CCc1nc2c(c(-c3ccc(Cl)cc3)n1)CN(S(=O)(=O)c1ccccc1)CC2 1.07%, CNC(=O)N1CCC(C2CCN(Cc3ccc(Br)o3)C2)CC1 (configuration not stated) 0.155%, O=C(NCc1ccccc1)N1CCCCC1c1nc(-c2cnccn2)n[nH]1 (configuration not stated) 32.3%, O=C(NCc1ccc(Cl)cc1)[C@@H]1Cc2nc[nH]c2CN1Cc1ccc(Cl)cc1 20% [at 57.5 µM], O=C(NC1CC(c2cc(NCCO)ncn2)C1)c1cc2ccccc2[nH]1 (configuration not stated) 3.8%, O=C(NCc1ccc(F)cc1)c1cnc2n[nH]c(-c3ccccc3)c2n1 -0.14% [at 57.5 µM], O=C(NC[C@H]1O[C@@H](CO)[C@@H](O)[C@H]1N1CCN(c2ccccc2)CC1)c1cccs1 50.7% [at 57.5 µM], Cc1noc([C@@H]2CNC[C@H]2CO)n1 4.3%, CC(=O)N[C@@H]1Cc2ccccc2[C@H]1n1ccnc1-c1cc2n(n1)CCNC2 41.3%, CCN1C(=O)C2CC3(CCN(C(=O)CCc4c(C)nn(C)c4C)CC3)CN2C1=O (configuration not stated) 0.0017%, CC[C@H]1CN(C(=O)Nc2cccc(OC)c2)CC[C@H]1CC(=O)NCc1cccnc1 2.74% [at 57.5 µM], O=C(CCc1ccccc1)N1CC[C@H]2COC(=O)N2c2cc(F)ccc2C1 -0.726% [at 57.5 µM], CCNC(=O)O[C@@H]1CO[C@H]2[C@@H]1OC[C@@H]2NC(=O)Nc1ccc(C(C)C)cc1 -0.407% [at 57.5 µM], CC(Cn1cncn1)NC(=O)c1ccc(CCC(C)(C)O)cc1 (configuration not stated) 1.79%, O=C(NCCc1ccc(Cl)cc1)c1nc(-c2cc(Cl)cc(Cl)c2)c2ccccn12 0.233%, CN(C)c1ccc(-c2nnc([C@H]3CCN(CC4CC4)C3)o2)cc1 8.93% [at 57.5 µM], CCC(N)(CC)c1cn(CC2CCCN(S(C)(=O)=O)C2)nn1 (configuration not stated) 14.6%, CC(=O)N1CCN(Cc2ccc(F)c(C(F)(F)F)c2)CC(O)C1 (configuration not stated) -4.46%, CCC(C)(C)C(=O)N1CC2CC(C1)[C@H]1CCCC(=O)N1C2 (some centres not stated) -1.57%, COCCN1CCC(CN(C)C2CCNCC2)C1 (configuration not stated) 32%, Cn1ccc(C(=O)N2CC(CNC(=O)Nc3ccccc3)C3(C2)CN(c2ccccc2)C3)n1 (configuration not stated) 0.0488%, CCc1ccc(NC(=O)C2CCN(C(=O)c3nnn4cc(C)[nH]c(=O)c34)CC2)cc1 1.49%, Cc1cc(=O)n(CC(=O)Nc2ccc(C)c(Cl)c2)c(N2CCN(c3ccccc3)CC2)n1 4.18%, Cc1nn(-c2ccc(C(C)(C)C)cc2)c(C)c1[C@@H]1C=C[C@@H](NC(=O)c2ccco2)C1 3.62% [at 57.5 µM]

Reference: PubChem BioAssay AID1794842 (National Center for Advancing Translational Sciences (NCATS), 2023)
